In all, about 410,000 compounds went through this assay and about 7,200 (1.8%) were called active. Inconclusive results, whose numbers are uncertain, are shown with a selection of clear calls. The call rests on the fitted dose curve; in most records, active means well fitted activation curve with a large enough effect; inconclusive means small, poorly fitted or top-dose-only effect, or another doubt; inactive means no such curve, though single readings can be large or run the other way. Potencies beside an inconclusive call are fits to weak or partial responses and may not hold up.
Assay: qHTS of TDP-43 Inhibitors; further: nearly all actives have a fitted effect of over 50% in size; on growth rescue (activation): % of control where 0% means no effect
Settings: TDP-43 expressing yeast growth rescue, BacTiter-Glo, 24 h; growth rescue (activation): at 46.1 µM (top of the series) unless noted
Method in brief: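 Luminescence from BacTiter-Glo reports growth of TDP-43-expressing yeast after 24 hr at 30 deg C with compound. Cells were raffinose-pregrown to mid-log, then seeded in galactose medium at OD600=0.02.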
Potency means the concentration at half of the fitted maximal effect; tags describe the fitted curve by direction and shape.

Potency, inactive:
O=C1CCCN1CCCNCC(=O)N1c2ccccc2Sc2ccccc21
Cc1ccc(NCC(O)Cn2cnc3c2c(=O)n(C)c(=O)n3C)cc1 (stereo not given)
COc1ccc(N(CC(=O)Nc2ccccc2C)S(=O)(=O)c2ccccc2[N+](=O)[O-])c(OC)c1

Potency, active:
COc1ccc(Nc2cc(Sc3ccc(OC)cc3)ncn2)cc1 22.4 µM
COc1cnc(-c2ccccn2)nc1Sc1ccc(Cl)cc1 14.1 µM
Cc1cc(C(F)(F)F)n2nc(-c3cnn(C)c3C(F)(F)F)c(Br)c2n1 12.6 µM

Potency, inconclusive:
O=C1CS(=O)(=O)N(Cc2ccc(F)cc2)c2ccccc21 35.5 µM [activator, single point]
O=C(CSc1n[nH]c(-c2ccco2)n1)N1c2ccccc2Sc2ccccc21 22.4 µM [activator, single point]
COc1cccc(OC)c1Nc1nc(C)nc2c1nnn2Cc1ccccc1Cl 35.5 µM [activator, partial curve, poor fit]
OCc1ccccc1OCCOc1ccc(Cl)c2cccnc12 12.6 µM [activator, single point]
COc1cccc(OCc2cc(/C=N/NC(=O)c3ccn[nH]3)ccc2OC)c1 11.2 µM [activator, single point]
COCCNC(=O)C(=O)Nc1ccc2c(c1)N(S(=O)(=O)c1cccs1)CCC2 31.6 µM [activator, single point]
Cc1cc(=O)oc2ccc(OCc3ccccc3)cc12 3.55 µM [activator, partial curve]
CC(=O)CSc1ncnc2sc3c(c12)CCCC3 22.4 µM [activator, single point]
CS(=O)(=O)N(CC(=O)N1CCCC1)c1cccc(Cl)c1 35.5 µM [activator, partial curve, poor fit]
CCOC(=O)c1ccc(N2C(=O)c3n[nH]c(-c4cccs4)c3C2c2cccc(F)c2)cc1 (stereo not given) 11.2 µM [activator, single point]
Cc1cc(Cl)ccc1C(=O)C1CCCN(C(=O)c2snnc2C)C1 (stereo not given) 35.5 µM [activator, single point]
Cc1cc(C(=O)NC2CCCc3c2cnn3-c2cccc(C)c2C)no1 (stereo not given) 12.6 µM [activator, partial curve]
CCCOC(=O)c1ccc(NC(=O)COC)cc1 6.31 µM [activator, full curve, poor fit]

Growth rescue (activation), inconclusive:
NC1=C(Br)C(=O)c2ccccc2C1=O -75.3% [activator]
